{"source": "PubChem BioAssay AID485344", "about": "(National Center for Advancing Translational Sciences (NCATS), 2010)", "note": "About 6,900 (2%) of roughly 340,000 compounds were called active. Rule as the data show it: active = inhibition above about 30%; inactive = below that, where a call was filed. This is a selection; strong and weak results do not stand in their true shares. Entries without a call were filed so in the source."}
{"biological_target": "D(2) dopamine receptor (Homo sapiens) (UniProt P14416)", "sequence (P14416 whole entry, looked up)": "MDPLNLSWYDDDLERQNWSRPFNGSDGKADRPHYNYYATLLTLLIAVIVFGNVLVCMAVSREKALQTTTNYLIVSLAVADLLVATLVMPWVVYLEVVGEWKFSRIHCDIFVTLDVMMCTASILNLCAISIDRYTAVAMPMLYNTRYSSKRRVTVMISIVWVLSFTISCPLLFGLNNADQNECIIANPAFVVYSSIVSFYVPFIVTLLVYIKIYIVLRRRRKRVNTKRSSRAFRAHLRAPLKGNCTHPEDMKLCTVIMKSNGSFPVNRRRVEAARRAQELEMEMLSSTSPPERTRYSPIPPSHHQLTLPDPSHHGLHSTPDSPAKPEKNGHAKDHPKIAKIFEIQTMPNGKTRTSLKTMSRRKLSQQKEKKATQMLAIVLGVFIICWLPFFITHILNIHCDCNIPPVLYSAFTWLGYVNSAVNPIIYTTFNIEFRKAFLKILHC", "assay": "HTS Assay for Allosteric Antagonists of the Human D2 Dopamine Receptor: Primary Screen for Antagonists; also: 0% is about no effect", "details": "HEK293 TREx D2 cells, calcium flux, dopamine EC80; at 10 µM; stronger effect = higher value", "how_it_was_run": "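Overnight-induced (tetracycline, 30 C) HEK293 T-REx cells carrying force-coupled D2 receive a no-wash calcium dye, then compound, then EC80 dopamine at 180 s; signals are read kinetically throughout.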"}
{"smiles": "Cc1oc(-c2ccc(Cl)cc2)nc1CN1CCCC(C(=O)NCc2ccc(Cl)cc2)C1", "note": "(stereo unspecified)", "inhibition": "-4.45%"}
{"smiles": "CCCOc1ccccc1C(=O)Nc1nc2c(s1)CCCC2", "inhibition": "-8.54%"}
{"smiles": "CN(Cc1ccccc1)C(=O)c1ccc2c(c1)N(Cc1ccc(Cl)cc1)C(=O)c1ccccc1S2=O", "note": "(stereo unspecified)", "inhibition": "6.16%"}
{"smiles": "CCOC(=O)C1CCN(C(=O)Cn2nc(CC)n3c(cc4occc43)c2=O)CC1", "inhibition": "8.8%"}
{"smiles": "Cc1ccc(NC(c2cccc(Cl)c2)c2nnc(-c3ccccc3)o2)cc1F", "note": "(stereo unspecified)", "inhibition": "2.99%"}
{"smiles": "Cc1cc(Cl)ccc1NS(=O)(=O)c1cc2[nH]c(=O)c(=O)[nH]c2cc1C", "inhibition": "14.2%"}
{"smiles": "CCCCc1nn2c(C)c(-c3ccc(OCC)cc3)nc2s1", "inhibition": "24.6%"}
{"smiles": "COc1ccc(CN2C(=O)c3ccccc3C2C(=O)NC2CCCCCC2)c(OC)c1", "note": "(stereo unspecified)", "inhibition": "14.3%"}
{"smiles": "O=C(Cn1ncc2c3ccccc3n(Cc3cccc(Cl)c3)c2c1=O)N1CCCCC1", "inhibition": "-3.04%"}
{"smiles": "CCOC(=O)CNC(=O)CSc1nnc(COc2ccc(Cl)cc2)n1CC", "inhibition": "active: 32.9%"}
{"smiles": "COc1ccccc1NC(=O)C1=C(C)Nc2nc(SCc3ccccc3Cl)nn2C1c1cccnc1", "note": "(stereo unspecified)", "inhibition": "-4.08%"}
{"smiles": "Cc1ccc(NC(=O)CN2CCN(C3CCCCC3)C(=O)C2=O)cc1C", "inhibition": "13%"}
{"smiles": "CCCN1C(C(=O)c2ccccc2)=C(OC(=O)C(C)(C)C)c2ccccc2S1(=O)=O", "inhibition": "-1.09%"}
{"smiles": "Cc1ccc2c(c1)sc1nc(=O)n(-c3cccc(Cl)c3)c(=O)n12", "inhibition": "8.18%"}
{"smiles": "Nc1cc(C(F)(F)F)ccc1-n1cccc1", "inhibition": "active: 39.2%"}
{"smiles": "Cc1ccc(-n2ncc(C(=O)N3CCN(c4cccc(C)c4C)CC3)c2C2CCNCC2)c(C)c1", "inhibition": "2.87%"}
{"smiles": "CCOC(=O)c1cc(-c2ccc(F)cc2)n(CCC(=O)NCc2ccc(C)cc2)c1C", "inhibition": "20.5%"}
{"smiles": "COc1ccc(Br)cc1CC1C(=O)Nc2ccccc21", "note": "(stereo unspecified)", "inhibition": "-22.2%"}
{"smiles": "CCC(=O)N1CCc2cc(S(=O)(=O)NCCC(=O)Nc3cccc(SC)c3)ccc21", "inhibition": "-12.8%"}
{"smiles": "O=C(COc1ccccc1F)Nc1ccc2nc(SCc3ccccc3)sc2c1", "inhibition": "7.26%"}
{"smiles": "COc1ccc2oc(=O)c(-c3nc4ccc(C)cc4[nH]3)cc2c1", "inhibition": "0.581%"}
{"smiles": "O=C(CCCNS(=O)(=O)c1cccc2nsnc12)NCCN1CCN(c2ccccc2F)CC1", "inhibition": "active: 78.8%"}
{"smiles": "O=C(/C=C/c1cccc(Br)c1)NC1CCN(Cc2ccccc2)CC1", "inhibition": "active: 71.8%"}
{"smiles": "COc1cc2nc(NC(=O)c3ccc(S(=O)(=O)N4CCCC4)cc3)sc2cc1OC", "inhibition": "16.6%"}
{"smiles": "O=C(COCc1cc(-c2ccc3c(c2)OCO3)on1)N1CCN(c2cccc(C(F)(F)F)c2)CC1", "inhibition": "-11.4%"}
{"smiles": "CCCS(=O)(=O)c1nc(S(=O)(=O)c2ccc(C)cc2)c(NC(C)c2ccccc2)s1", "note": "(stereo unspecified)", "inhibition": "-7.61%"}
{"smiles": "Cc1cccc(Cn2c(SCc3ccc(C(=O)NCc4ccccc4F)cc3)nc3cccnc32)c1", "inhibition": "17.8%"}
{"smiles": "Cc1ccc(-n2ccnc(NCc3cccs3)c2=O)cc1C", "inhibition": "-0.212%"}
{"smiles": "Cc1cc(C)c2oc(C(=O)Nc3nc4ccc(Cl)cc4s3)cc(=O)c2c1", "inhibition": "6.87%"}
{"smiles": "COc1cccc(NS(=O)(=O)c2ccc3[nH]cc(C(=O)NCCc4ccc(C)cc4)c(=O)c3c2)c1", "inhibition": "-25.5%"}
{"smiles": "CN1C(C(=O)NC(C)(C)C)=CC(c2ccc3c(c2)OCO3)=NS1(=O)=O", "inhibition": "13.2%"}
{"smiles": "Cn1c2ccccc2c2c(C(=O)N3CCN(c4cccc(C(F)(F)F)c4)CC3)cn(C3CCCCC3)c(=O)c21", "inhibition": "8.64%"}
{"smiles": "Cc1ccc(-c2cn3nc(N4CCC(C(=O)Nc5ccccc5C)CC4)sc3n2)cc1", "inhibition": "11.6%"}
{"smiles": "CCOc1ccccc1CNC(=O)C1CCN(Cc2cc3ccccc3n2Cc2ccccc2)CC1", "inhibition": "18%"}
{"smiles": "CN(C)S(=O)(=O)N(CC(=O)NCCSc1ccc(Cl)cc1)c1ccccc1", "inhibition": "6.49%"}
{"smiles": "CCC(C(=O)Nc1cc(OC)ccc1OC)n1nc(-c2ccccc2)c2c(c1=O)CCCC2", "note": "(stereo unspecified)", "inhibition": "10.4%"}
{"smiles": "CC(=O)N1CCc2cc(CNC(=O)Nc3ccccc3C(F)(F)F)ccc21", "inhibition": "4.33%"}
{"smiles": "CCCN1CCCc2cc(CN(CCCN3CCOCC3)C(=O)Nc3ccc(OCC)cc3)ccc21", "inhibition": "-25.8%"}
{"smiles": "Cc1cccc(Cn2nnc3c(=O)[nH]c(C4CCCN(C(=O)c5ccc(C(C)(C)C)cc5)C4)nc32)c1", "note": "(stereo unspecified)", "inhibition": "21.4%"}
{"smiles": "COc1ccc2c(CNC3CCC(C)CC3)c(C(=O)O)n(Cc3ccccc3)c2c1", "note": "(stereo unspecified)", "inhibition": "-14.5%"}
{"smiles": "COc1ccccc1C(=O)NCCc1csc(-c2ccc(C(F)(F)F)cc2)n1", "inhibition": "-6.37%"}
{"smiles": "COc1cc(NC(=O)Cn2c(=O)n(CC3CCCO3)c(=O)c3cc(OC)c(OC)cc32)cc(OC)c1", "note": "(stereo unspecified)", "inhibition": "-1.08%"}
{"smiles": "CCOc1ccccc1N1CCN(C(=O)NCc2ccc(C)cc2)CC1", "inhibition": "active: 30.3%"}
{"smiles": "CCOCCc1nn2c(=O)cc(COC(=O)c3ccc(NC(=O)c4ccc(F)cc4)cc3)nc2s1", "inhibition": "18.1%"}
{"smiles": "CCc1ccc(C2CC(=O)N(c3cccc(C(F)(F)F)c3)C3=C2C(=O)OC3)cc1", "note": "(stereo unspecified)", "inhibition": "0.412%"}
{"smiles": "Cc1ccc(C)c(NC2=C(c3ccc(C(F)(F)F)cc3)C(=O)c3ccccc32)c1", "inhibition": "5.31%"}
{"smiles": "CCn1c(=O)c(C(=O)Nc2cc(OC)c(OC)c(OC)c2)nc2ccccc21", "inhibition": "7.77%"}
{"smiles": "COc1ccc(C2CC(=O)c3cc(-c4nc(-c5cccc([N+](=O)[O-])c5)cs4)c(=O)n(-c4ccccc4C)c3C2)cc1", "note": "(stereo unspecified)", "inhibition": "0.951%"}
{"smiles": "Cc1ccc(-c2cc(NC(=O)COc3c(C)cc(C)cc3C)on2)cc1", "inhibition": "14.2%"}
{"smiles": "COc1ccccc1N1CCN(CC(C)N(C(=O)C2CCCCC2)c2ccccn2)CC1", "note": "(stereo unspecified)", "inhibition": "active: 82.1%"}
{"smiles": "O=C(NCc1ccccc1F)c1cccc(NC(=O)N2CCSc3ncccc32)c1", "inhibition": "-11%"}
{"smiles": "COC(=O)c1ccc(NC(=O)c2nn(C)c3c2COc2ccccc2-3)cc1", "inhibition": "-13.2%"}
{"smiles": "c1ccc(SCCN2CCN(c3ccccc3)CC2)cc1", "inhibition": "active: 60.1%"}
{"smiles": "CCOc1ccc(OCC(=O)NCCS(=O)(=O)N2CCN(c3ccc(OC)cc3)CC2)cc1", "inhibition": "17.5%"}
{"smiles": "Cc1ccc(NC(=O)Cn2c(=O)n(CCc3ccccc3)c(=O)c3sc4ccccc4c32)cc1C", "inhibition": "-2.15%"}
{"smiles": "Cc1nn(CCCC(=O)NCCc2ccc(Cl)cc2)c(=O)c2nn(-c3ccccc3)c(C)c12", "inhibition": "-1.09%"}
{"smiles": "O=C(NCc1cccc(Cl)c1)c1oc(=O)c2ccccc2c1-c1ccccc1", "inhibition": "-11.1%"}
{"smiles": "COc1ccccc1CNS(=O)(=O)c1cc(-c2cc(C)no2)ccc1C", "inhibition": "7%"}
{"smiles": "COc1ccc(CNC(=O)CCc2nc3cccnc3n2Cc2ccc(OC)cc2)cc1", "inhibition": "16%"}
{"smiles": "CCCCOc1ccc(Cn2c(=O)oc3ccccc32)cc1", "inhibition": "3.1%"}
{"smiles": "O=C(Cn1cc(S(=O)(=O)Cc2cccc(Cl)c2)c2ccccc21)Nc1ccc(F)c(Cl)c1", "inhibition": "-9.19%"}
{"smiles": "Cc1ccccc1Cc1c(C)nc2c(-c3ccccc3)c(C)[nH]n2c1=O", "inhibition": "-7.42%"}
{"smiles": "O=C(COc1ccccc1)NCCc1csc(-c2ccc(F)cc2)n1", "inhibition": "10.6%"}
{"smiles": "CN(C(=O)Cn1c(=O)n(Cc2ccc(C(=O)NCc3ccc4c(c3)OCO4)cc2)c(=O)c2ccccc21)c1ccccc1", "inhibition": "-8.96%"}
{"smiles": "Cc1ccc(CNC(=O)C2CCCN(c3nc4c(C)cc(C)cc4s3)C2)cc1", "note": "(stereo unspecified)", "inhibition": "-4.28%"}
{"smiles": "CC(=O)c1cccc(Nc2cc(C)nc3nc(-c4ccccc4C)nn23)c1", "inhibition": "-5.93%"}
{"smiles": "COC(=O)c1ccccc1NC(=O)CCn1nc(C)c2c(C)n(-c3ccccc3)nc2c1=O", "inhibition": "11%"}
{"smiles": "Cc1ccc(OCCSc2nc3ccccc3n2CC(=O)N2CCCCC2)cc1C", "inhibition": "1.45%"}
{"smiles": "COC(=O)c1ccccc1NC(=O)Cn1ncc2c(C)n(Cc3ccc(F)cc3)c(C)c2c1=O", "inhibition": "-6.78%"}
{"smiles": "Cc1sc(NC(=O)c2ccco2)c(CN2CCN(c3ccccn3)CC2)c1C", "inhibition": "active: 124%"}
{"smiles": "CCOc1ccc(CNC(=O)CN2C(=O)CSc3ccc(S(=O)(=O)N4CCOCC4)cc32)cc1OC", "inhibition": "10.7%"}
{"smiles": "O=C(NCc1ccc(Cl)cc1)C1(c2cccs2)CCOCC1", "inhibition": "-13.1%"}
{"smiles": "O=C(CCCCn1c(=O)c2ccccc2n(Cc2ccccc2F)c1=O)NCc1ccc2c(c1)OCO2", "inhibition": "15.8%"}
{"smiles": "Cc1cc2oc(C(=O)N(Cc3ccc(N(C)C)cc3)CC3CCCO3)c(C)c2cc1C", "note": "(stereo unspecified)", "inhibition": "9.72%"}
{"smiles": "CCC1=Nc2cc(C(=O)NCCCOC(C)C)ccc2Sc2ccc(C)cc21", "inhibition": "-2.48%"}
{"smiles": "COc1ccc(-c2noc(-c3cc(C(C)C)[nH]n3)n2)cc1", "inhibition": "-2.14%"}
{"smiles": "CCCCN(C)C(=O)c1ccc2c(c1)N(Cc1cccc(Cl)c1)C(=O)c1ccccc1S2=O", "note": "(stereo unspecified)", "inhibition": "-21%"}
{"smiles": "CCOC(=O)CSc1nc2cc3c(cc2c(=O)n1CCCCCC(=O)NCc1ccc2c(c1)OCO2)OCO3", "inhibition": "-5.81%"}
{"smiles": "Cc1cc(C)cc(NC(=O)N2CCN(C)c3ncccc32)c1", "inhibition": "8.03%"}
{"smiles": "COc1cc(C2Nc3ccccc3-c3nnc(SCc4ccc(Cl)cc4)nc3O2)ccc1OCC(=O)O", "note": "(stereo unspecified)", "inhibition": "-0.994%"}
{"smiles": "Cc1ccc2c(CC(=O)Nc3ccc(S(=O)(=O)Nc4nc(C)cc(C)n4)cc3)coc2c1", "inhibition": "-18.7%"}
{"smiles": "CCOc1cccc2sc(NC(=O)c3ccc(S(=O)(=O)N4CCc5ccccc54)cc3)nc12", "inhibition": "-5.29%"}
{"smiles": "CCc1cccc(C)c1NC(=O)C(CC)Sc1nc2ccncc2[nH]1", "note": "(stereo unspecified)", "inhibition": "16.4%"}
{"smiles": "CCCN1CCN(CC2=C(C(=O)OCC)C(c3cccc(OC)c3OC)NC(=O)N2)CC1", "note": "(stereo unspecified)", "inhibition": "-13.1%"}
{"smiles": "CCCCc1nn2c(=O)cc(COC(=O)c3ccc(NC(=O)c4cccc(OC)c4)cc3)nc2s1", "inhibition": "-16.1%"}
{"smiles": "Cc1ccc(NC(=O)N2CCc3c(sc4c3CCCC4)C2c2ccccc2)cc1F", "note": "(stereo unspecified)", "inhibition": "-3.37%"}
{"smiles": "CSc1ncc(C(=O)NCc2ccccc2Cl)c(C(F)(F)F)n1", "inhibition": "2.4%"}
{"smiles": "COc1cc(C)ccc1OCCSc1nnc(-c2cccs2)o1", "inhibition": "13.8%"}
{"smiles": "O=C(/C=C/c1ccccc1)Nc1cc(-c2nc3ccccc3o2)ccc1Cl", "inhibition": "1.88%"}
{"smiles": "FC(F)(F)c1cccc(N2CCN(Cc3nnc(-c4ccccc4)o3)CC2)c1", "inhibition": "2.5%"}
{"smiles": "CC(C)c1ccc(-c2noc(SCC(=O)N3CCCCC3)n2)cc1", "inhibition": "0.783%"}
{"smiles": "CCOc1ccccc1CNC(=O)c1ccc(Cn2c(=O)c3cccn3c3cccnc32)cc1", "inhibition": "0.343%"}
{"smiles": "CC(=O)Nc1nonc1-c1nnc(SCc2cccc(Br)c2)n1C", "inhibition": "4.9%"}
{"smiles": "CCCN(CCC)CCCNC(=O)c1nn(C)c2c1CS(=O)(=O)c1ccccc1-2", "inhibition": "16.6%"}
{"smiles": "COc1ccc2c(c1)Cc1sc(NC(=O)c3cccc(Cl)c3)nc1-2", "inhibition": "10.5%"}
{"smiles": "CC1CCN(S(=O)(=O)c2ccc3nc(N4CCN(c5ccccc5F)CC4)ccc3c2)CC1", "inhibition": "-9.53%"}
